According to PubChem BioAssay AID686978 (National Center for Advancing Translational Sciences (NCATS), 2013):
Among all 420,000 compounds or so, about 64,000 (15%) were called active. Inconclusive results, whose numbers are uncertain, are shown with a selection of clear calls. Calls follow the shape of the dose curve; as a rule, active = well fitted inhibition curve with a large enough effect; inconclusive = small, poorly fitted or top-dose-only effect; inactive = flat fitted curve, though single readings scatter. No potency is given beside an inconclusive call; the fits are too rough.

Assay: qHTS for Inhibitors of human tyrosyl-DNA phosphodiesterase 1 (TDP1): qHTS in cells in absence of CPT; also: nearly all actives have a fitted effect of over 55% in size
Details: DT40 Tdp1-/- hTDP1 cells, no CPT, ATP luminescence, 48 h; activity change, negative = growth inhibition: at 46.2 µM (top of the series) unless noted
Outline: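 Camptothecin absent (DMSO only). Human TDP1-complemented DT40 knockout cells, 400 cells/well, 37 °C for minimum 48 hr; ATP measured via CellTiter-Glo, 30 min dark incubation, luminescence.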
% is scaled to controls: 0 for no effect and ±100 for the full control effect; potency is read from the fitted curve at half-maximal effect; tags tell the direction and shape of the fitted curve.

Row | Compound | activity change, negative = growth inhibition | Potency
1 | Cc1ccc(-c2nnc(Nc3ccc(Br)cc3)c3ccccc23)cc1S(=O)(=O)N1CCCCC1 | inconclusive: -36% [inhibitor] | –
2 | O=C(Cn1cnc2c(nc3n2CCCCC3)c1=O)Nc1ccc(F)cc1 | – | inactive
3 | CCCN(CCC)CCCNC(=O)Cn1cnc2onc(-c3ccc(F)cc3)c2c1=O | – | inactive
4 | O=C(NCc1ccc(F)cc1)c1cc(C2CCCCN2S(=O)(=O)c2ccc(F)cc2F)on1 (stereo not drawn) | – | inconclusive [inhibitor, single point]
5 | CC1(C)CN(Cc2ccccc2)C(=O)[C@H]1CC(=O)Nc1ccc(Br)cc1 | – | active: 13 µM
6 | CSc1ccc(CN2CCN(CC=C(C)C)C(CCO)C2)cc1 (stereo not drawn) | – | inconclusive [inhibitor, single point]
7 | Cc1csc(SCC(=O)NC(=O)NC2CCCC2)n1 | – | inactive
8 | CCOc1ccc(S(=O)(=O)Oc2ccc3ccccc3c2)cc1 | – | inconclusive [inhibitor, single point]
9 | COCCCN1C(=O)c2ccc(C(=O)Nc3ccc(OC)cc3)cc2C1=O | – | inactive
10 | CCCN1CNC(=S)N(c2ccc(C)cc2C)C1 | – | inactive
11 | CCCCCCSc1cc(-c2nc3ccc(Cl)cn3c2NC2CCCCC2)ccc1OC | – | active: 16.4 µM
12 | O=C(CN1C(=O)NC(c2ccccc2)(c2ccccc2)C1=O)NCCc1ccc(F)cc1 | – | inconclusive [inhibitor, single point]
13 | COc1ccc(S(=O)(=O)N2c3ccc(Cl)cc3[C@@](O)(c3ccccc3Cl)[C@H]2C(=O)N2CCC[C@@H]2C(N)=O)cc1OC | – | inconclusive [inhibitor, single point]
14 | CCCn1nc(C(=O)NC2CCCCCC2)c2ccccc2c1=O | – | inconclusive [inhibitor, single point]
15 | CN1CCN(NC(=O)CN2C(=O)/C(=C/c3ccccc3Cl)SC2=S)CC1 | inconclusive: -35.2% [inhibitor] | –
16 | COc1ccc(C2=NN(C(C)=O)C(c3ccccc3)C2)cc1 (stereo not drawn) | – | inactive
17 | COc1ccc(CCNC(=O)Cc2c(Cl)cccc2Cl)cc1 | – | inactive
18 | COc1ccc(NC(=O)c2sccc2-n2cccc2)cc1 | – | inconclusive [inhibitor, single point]
19 | O=C(COc1ccc(Br)cc1)Nc1ccccc1N1CCCC1 | – | inconclusive [inhibitor, single point]
20 | Cc1cc(C)c(S(=O)(=O)Nc2ncn[nH]2)cc1C | – | inactive
21 | O=S(=O)(c1ccc(Br)s1)N1CCC2(CC1)OCCO2 | – | inactive
22 | CCOc1ccccc1C1CC(c2ccccc2)Nc2nc(N)nn21 (stereo not drawn) | – | inconclusive [inhibitor, partial curve]
23 | COc1ccc(S(=O)(=O)N2CC(C)OC(C)C2)cc1C(=O)N1CCCCC1 (stereo not drawn) | – | inconclusive [inhibitor, single point]
24 | Cc1cc(C)c2c(-n3cccc3)c(C(=O)NCCc3ccc(Cl)cc3)sc2n1 | – | inconclusive [inhibitor, partial curve, poor fit]

Row | Compound | activity change, negative = growth inhibition | Potency
25 | Cc1ccc(C(=O)NCC(c2ccc(F)cc2)N2CCOCC2)cc1S(=O)(=O)N1CCOCC1 (stereo not drawn) | – | inactive
26 | CCC(=O)NC1CC(=O)N(c2ccc3c(c2)OCCO3)C1 (stereo not drawn) | – | inactive
27 | CCN(CCNC(=O)c1ccc(C#N)cc1)c1cccc(C)c1 | – | inconclusive [inhibitor, partial curve]
28 | C=CCn1c(COc2ccccc2)nnc1SC(C)C(=O)N/N=C/c1cc(Cl)ccc1O (stereo not drawn) | – | active: 20.6 µM
29 | Cc1ccc(N2C(=O)CSC2c2cccnc2)c(Cl)c1 (stereo not drawn) | – | active: 20.6 µM
30 | O=C(CN1C(=O)C(c2ccc(F)cc2)=NC12CCCCCC2)Nc1ccc(F)c(Cl)c1 | – | inconclusive [inhibitor, single point]
31 | Cc1ccc(NC(=O)c2sccc2C)nc1 | – | inactive
32 | COC(=O)C(C)Sc1nnc2cc(C)c3cc(C)cc(C)c3n12 (stereo not drawn) | – | inactive
33 | COc1cc(/C=C(/C#N)C(=O)Nc2ccccc2)c(Br)cc1OCc1ccc(C(=O)O)cc1 | – | inconclusive [inhibitor, single point]
34 | CC1CCN(C(=O)Cn2cnc3c2c(=O)n(C)c(=O)n3C)c2ccccc2S1 (stereo not drawn) | – | active: 18.4 µM
35 | CC(=O)N1CCOc2ccc(S(=O)(=O)N3CCCC(C)C3)cc21 (stereo not drawn) | – | inconclusive [inhibitor, single point]
36 | CCC(C(=O)NCCc1ccccc1)c1ccccc1 (stereo not drawn) | – | inactive
37 | CCc1ccc2c(c1)[C@]1(C(=O)N2)[C@@H]2C(=O)N(Cc3ccccc3)C(=O)[C@@H]2[C@@H]2CCCN21 | – | inconclusive [inhibitor, single point]
38 | CCCOc1ccc(NC(=O)CC2C(=O)N(c3ccccc3)C(=O)N2CCC(C)C)cc1 (stereo not drawn) | – | active: 14.6 µM
39 | Cc1cc(=O)[nH]c(NN=C2CCC(C(C)(C)C)CC2)n1 (stereo not drawn) | – | inactive
40 | CC1(C)Cc2c(C#N)c(N3CCOCC3)nc(Cc3ccccc3)c2CO1 | – | active: 20.6 µM
41 | CCC(C(=O)NCCc1ccccc1OC)n1nc(C)c2c(C)n(-c3ccccc3)nc2c1=O (stereo not drawn) | – | inconclusive [inhibitor, single point]
42 | c1ccc(OCc2nnc3n2N=C(c2ccccc2)CS3)cc1 | – | inconclusive [inhibitor, single point]
43 | COCCNC(=S)c1ccc(Br)cc1 | – | inconclusive [inhibitor, partial curve, poor fit]
44 | C(=Cc1c[nH]c2ccccc12)c1ccc2ccccc2n1 | – | inconclusive [inhibitor, single point]
45 | CCOC(=O)c1c(C)n(C)c2ccc(OCC(O)Cn3nc(C)cc3C)cc12 (stereo not drawn) | – | inconclusive [inhibitor, single point]
46 | Cc1ccc(CN2CCN(c3ncccn3)CC2)c(C)c1 | – | inactive
47 | COc1ccc(OCc2nnc(SCC(=O)N3c4ccccc4Sc4ccc(Cl)cc43)o2)cc1 | – | inconclusive [inhibitor, partial curve]
48 | CC1Cc2nc(SCC(=O)N3CCN(c4ccccc4)CC3)n(CCc3ccccc3)c(=O)c2S1 (stereo not drawn) | – | active: 13 µM
